From PubChem BioAssay AID1240 (Sanford-Burnham Center for Chemical Genomics, 2008) come the findings set out here.

Molecules are shown by their SMILES. Among all 50,000 compounds or so, about 800 (1.6%) showed an effect of 50% or more. The list shows a part of the results.

The test addresses Bcl-2-like protein 10 (Homo sapiens) (UniProt Q9HD36). Put plainly: Phenotype converters, Bcl-B/TR3 peptide binding displacement, primary biochemical FP (AID 1240).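 Note: 0% = Bcl-B with tracer peptide and DMSO and 100% = tracer peptide lacking Bcl-B.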 To be noted: GST-Bcl-B / FITC-TR3 peptide fluorescence polarization; stronger effect = higher value; compound at 3.75 mg/L.
Chain of UniProt Q9HD36 (Q9HD36 whole entry, looked up): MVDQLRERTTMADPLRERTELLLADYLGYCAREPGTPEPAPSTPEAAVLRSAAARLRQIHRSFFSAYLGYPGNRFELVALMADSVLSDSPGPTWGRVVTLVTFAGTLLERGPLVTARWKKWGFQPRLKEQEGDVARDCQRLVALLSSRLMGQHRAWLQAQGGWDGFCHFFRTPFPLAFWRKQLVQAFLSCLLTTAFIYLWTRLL
For the molecule `Cc1ccc(S(=O)(=O)N(CC(=O)N2CCOCC2)c2ccccc2F)cc1`, the displacement was 4.3%.

For `O=S(=O)(NCc1ccncc1)c1cc(Cl)ccc1Cl`, the displacement is -10%. `Cc1cc(C)n(CC(O)Cn2c3ccccc3c3ccccc32)n1` (stereo unspecified): the displacement was 9%.

Regarding `CCC(Oc1ccccc1)C(=O)Nc1ccc(F)c([N+](=O)[O-])c1` (stereo unspecified), the displacement was -5.1%. Under `Nc1nnc(SCC(=O)Nc2ccc3c(c2)oc2ccccc23)s1` stands -0.8%; under `CCOC(=O)c1c(NC(=O)c2cnccn2)sc2c1CCC(C(C)(C)C)C2` (stereo unspecified), 4.1%; under `COC(=O)C(Cc1c[nH]c2ccccc12)NC(=O)C(c1ccccc1)c1ccccc1` (stereo unspecified), 0.3%.

For the molecule `CC1(C)Cc2c(c(N3CCOCC3)nc3sc4c(NCc5ccccc5)ncnc4c23)CO1`, the displacement worked out at 8%. On to `CCN(CC)CCCCOc1ccc(C(C)C)cc1`, for which the displacement is -6.7%. For `Cc1cc(C(=O)N/N=C/C(Br)=C/c2ccccc2)n[nH]1` the value was -19.5%; for `Cc1ccc2oc(-c3cc(NC(=O)Cc4ccccc4)ccc3O)nc2c1`, 7.4%.

For the molecule `N#C/C(=C/c1ccccc1)C(=O)Nc1ccc(Cl)c(Cl)c1`, the displacement was determined as 1.5%. For the molecule `COc1cc(C=C2C(=O)NC(=S)NC2=O)ccc1OS(=O)(=O)c1ccccc1`, the displacement was determined as 2.2%. For `COc1ccc(S(=O)(=O)N(CC(=O)N2CCN(c3ccccc3)CC2)c2ccc(C)cc2)cc1OC` the value was 6.1%; for `CCOC(=O)/C(=C/Nc1ccccc1)C(=O)Nc1ccccc1`, 7%; for `COc1ccc(N/C(C)=C/C(=O)c2ccc(F)cc2)cc1`, -0.7%. For `O=C(NNC(=O)C(c1ccccc1)c1ccccc1)C(c1ccccc1)c1ccccc1`, the displacement stood at 13%. With `O=P(CC1CCCO1)(c1ccccc1)c1ccccc1` (stereo unspecified), the displacement was found to be 2.3%. For `NC1=NC(=O)/C(=C\c2ccc(-c3ccc(F)cc3)o2)S1` the value was 13.5%; for `Cc1cccc2sc(NC(=O)c3ccccc3C(=O)O)nc12`, 20.9%; for `Cc1nc(-c2ccccc2)sc1C(=O)NCc1ccccc1`, 7.4%. As for `O=C1NC(=S)N(C(=O)c2ccc(F)cc2)/C1=C/c1ccc(Br)cc1`, the displacement was -2.2%. In the case of `COc1ccc(-c2ccc(/C=N/NC(=O)c3cccnc3)o2)cc1Cl`, the displacement amounted to 11.8%.

With `COc1ccccc1C(=O)Nc1ccc(-c2cc3ccccc3oc2=O)cc1`, the displacement turned out to be 12.1%. With `COc1ccccc1CNC(=O)c1cccc(C)c1`, the displacement is -3.2%.

As for `Cc1ccc2oc(-c3cccc(NC(=O)c4ccc(-c5ccc([N+](=O)[O-])cc5C)o4)c3C)nc2c1`, the displacement turned out to be 10.3%. With `COc1ccc(C(=O)Nc2cccc3nsnc23)cc1`, the displacement was -2.4%.

`O=C(Cc1ccc([N+](=O)[O-])cc1)N/N=C/c1ccncc1`: the displacement is 11.6%.

As for `CN(C)CCNC(=O)/C(=N\O)c1ccccn1`, the displacement was 15.9%.

As for `Cc1ccc(NC(=S)NC(=O)c2ccco2)cc1C`, the displacement turned out to be 7.8%. As to `CCOC(=O)c1sc(NC(=S)NC(=O)c2ccc([N+](=O)[O-])cc2)c(C(=O)OCC)c1C`, the displacement is 6.3%.
